Results: US4054669A, “Phenolic menthene derivatives, therapeutic composition containing same and their use as therapeutic compositions” (Les Derives Resiniques et Terpeniques, priority 1975, dated 1977)

Test system: influenza virus, A2 Hong Kong strain
Design: species or system influenza virus A2 Hong Kong (mice)
Conditions: mouse, in vivo

SMILES	changes in weight and systemic condition of mice vs amantadine or cyclooctylamine	development of viral pneumonia in infected mice
Cc1c(C2=CCC(C)CC2C(C)C)cc(C(C)C)c(O)c1S(=O)(=O)O (stereo not shown) [LJ 2128, m.menthene-thymol-2-sulfonate]	more satisfactory	prevents the development of viral pneumonia
CC1CC=C(c2ccc(O)c(S(=O)(=O)O)c2)C(C(C)C)C1 (stereo not shown) [LJ 2148, sodium m.menthene-phenol-2-sulfonate]	more satisfactory	prevents the development of viral pneumonia
